# Some of the results follow. Sequences were assembled here from the parent chain. Inactive controls read about 0.05.
# B1: TEV protease; numbered along this chain (parent)
# chain: MGESLFKGPRDYNPISSSICHLTNESDGHTTSLYGIGFGPFIITNKHLFRRNNGTLVVQSLHGVFKVKDTTTLQQHLVDGRDMIIIRMPKDFPPFPQKLKFREPQREERICLVTTNFQTKSMSSMVSDTSCTFPSGDGIFWKHWIQTKDGQCGSPLVSTRDGFIVGIHSASNFTNTNNYFTSVPKNFMELLTNQEAQQWVSGWRLNADSVLWGGHKVFMVKPEEPFQPVKEATQL
# Variants of: B1
# Test: raw area under fraction-flipped curve 0-4 h after induction (AUC4h, not background-subtracted), DNA-recorder readout of cleavage of the substrate (dimensionless); higher = more cleavage of the substrate by the protease variant
# Conditions: temperature: 34 °C; time window: 0-4 h after rhamnose induction
# Description: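 In vivo DNA recorder in E. coli TOP10(DE3) ΔrhaA at 34 °C. Each TEVp single-site mutant (parent TEVp 0) is paired with a single-site variant of the 7-mer TEVs (canonical ENLYFQ|S). The substrate sits between flexible linkers in a Bxb1-sfGFP-TEVs-SsrA fusion, so cleavage stabilises Bxb1 and speeds flipping of a recombination array, read by NGS. The value is the raw area under the fraction-flipped curve over 0-4 h after rhamnose induction (AUC4h), with ≥20 reads per time point. It is not background-subtracted; inactive controls average about 0.047.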
# 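Also: Bxb1 expression induced with 0.2% (w/v) L-rhamnose at OD600 near 0.5, cultures sampled hourly, flipped fraction per protease–substrate barcode pair counted by paired-end Illumina sequencing.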
Variant,area with substrate ENLAFQS,area with substrate ENLDFQS,area with substrate ENLFFQS,area with substrate ENLGFQS,area with substrate ENLKFQS,area with substrate ENLLFQS,area with substrate ENLWFQS,area with substrate ENLHFQS,area with substrate ENLIFQS,area with substrate ENLNFQS,area with substrate ENLPFQS,area with substrate ENLRFQS,area with substrate ENLTFQS,area with substrate ENLVFQS,area with substrate ENLCFQS,area with substrate ENLEFQS,area with substrate ENLSFQS,area with substrate ENLMFQS,area with substrate ENLQFQS
MGESLFKGPRDYNPISSSICHLTNESDGHTTSLYGIGFGPFIITNKHLFRRNNGTLVVQSLHGVFKVKDTTTLQQHLVDGRDMIIIRMPKDFPPFPQKLKFREPQREERICLVTTNFQTKSMSSMVSDTSCTFPSGDGIFWKHWIQTKDGQCGSPLVSSRDGFIVGIHSASNFTNTNNYFTSVPKNFMELLTNQEAQQWVSGWRLNADSVLWGGHKVFMVKPEEPFQPVKEATQL [T159S],0.0522,0.0585,0.0927,0.0631,0.0604,0.0428,0.0574,,,,,,,,,,,,
MGESLFKGPRDYNPISSSICHLTNESDGHTTSLYGIGFGPFIITNKHLFRRNNGTLVVQSLHGVFKVKDTTTLQQHLVDGRDMIIIRMPKDFPPFPQKLKFREPQREERICLVTTNFQTKSMSSMVSDTSCTFPSGDGIFWKHWIQTKDGQCGSPLVSTRMGFIVGIHSASNFTNTNNYFTSVPKNFMELLTNQEAQQWVSGWRLNADSVLWGGHKVFMVKPEEPFQPVKEATQL [D161M],0.0587,0.0396,0.0497,,0.0642,,,0.0533,0.0401,0.0601,0.0513,0.0599,0.0611,0.0533,,,,,
MGESLFKGPRDYNPISSSICHLTNESDGHTTSLYGIGFGPFIITNKHLFRRNNGTLVVQSLHGVFKVKDTTTLQQHLVDGRDMIIIRMPKDFPPFPQKLKFREPQREERICLVTTNFQTKSMSSMVSDTSCTFPSGDGIFWKHWIQTKDGQCGSPLVSTRDGFIYGIHSASNFTNTNNYFTSVPKNFMELLTNQEAQQWVSGWRLNADSVLWGGHKVFMVKPEEPFQPVKEATQL [V165Y],0.0501,,0.059,,0.0551,0.0579,,0.0501,0.0517,0.0597,0.0293,0.0571,0.0478,,0.0392,0.0431,0.0515,,
MGESLFKGPRDYNPISSSICHLTNESDGHTTSLYGIGFGPFIITNKHLFRRNNGTLVVQSLHGVFKVKDTTTLQQHLVDGRDMIIIRMPKDFPPFPQKLKFREPQREERICLVTTNFQTKSMSSMVSDTSCTFPSGDGIFWKHWIQTKDGQCGSPLVSTRDGFIVGCHSASNFTNTNNYFTSVPKNFMELLTNQEAQQWVSGWRLNADSVLWGGHKVFMVKPEEPFQPVKEATQL [I167C],0.0573,,0.0818,,0.0788,0.0579,,0.0773,0.0735,0.0885,0.0749,0.0647,,,,,0.0489,0.0688,0.0699
MGESLFKGPRDYNPISSSICHLTNESDGHTTSLYGIGFGPFIITNKHLFRRNNGTLVVQSLHGVFKVKDTTTLQQHLVDGRDMIIIRMPKDFPPFPQKLKFREPQREERICLVTTNFQTKSMSSMVSDTSCTFPSGDGIFWKHWIQTKDGQCGSPLVSTRDGFIVGIHEASNFTNTNNYFTSVPKNFMELLTNQEAQQWVSGWRLNADSVLWGGHKVFMVKPEEPFQPVKEATQL [S169E],0.0501,,0.0677,0.0336,0.0615,,0.0389,0.058,0.0506,0.0736,,0.0662,,,,0.0584,0.107,0.0622,0.0412
MGESLFKGPRDYNPISSSICHLTNESDGHTTSLYGIGFGPFIITNKHLFRRNNGTLVVQSLHGVFKVKDTTTLQQHLVDGRDMIIIRMPKDFPPFPQKLKFREPQREERICLVTTNFQTKSMSSMVSDTSCTFPSGDGIFWKHWIQTKDGQCGSPLVSTRDGFIVGIHPASNFTNTNNYFTSVPKNFMELLTNQEAQQWVSGWRLNADSVLWGGHKVFMVKPEEPFQPVKEATQL [S169P],0.0708,0.0513,0.0649,0.0548,0.0659,,0.036,0.0626,0.0681,0.0577,0.0612,,,0.0754,,0.0587,0.0693,,
MGESLFKGPRDYNPISSSICHLTNESDGHTTSLYGIGFGPFIITNKHLFRRNNGTLVVQSLHGVFKVKDTTTLQQHLVDGRDMIIIRMPKDFPPFPQKLKFREPQREERICLVTTNFQTKSMSSMVSDTSCTFPSGDGIFWKHWIQTKDGQCGSPLVSTRDGFIVGIHSHSNFTNTNNYFTSVPKNFMELLTNQEAQQWVSGWRLNADSVLWGGHKVFMVKPEEPFQPVKEATQL [A170H],0.0652,0.0579,0.054,,,,,0.0566,,0.0538,,0.0757,,,0.0434,,,0.061,0.061
MGESLFKGPRDYNPISSSICHLTNESDGHTTSLYGIGFGPFIITNKHLFRRNNGTLVVQSLHGVFKVKDTTTLQQHLVDGRDMIIIRMPKDFPPFPQKLKFREPQREERICLVTTNFQTKSMSSMVSDTSCTFPSGDGIFWKHWIQTKDGQCGSPLVSTRDGFIVGIHSASGFTNTNNYFTSVPKNFMELLTNQEAQQWVSGWRLNADSVLWGGHKVFMVKPEEPFQPVKEATQL [N172G],0.0645,0.0604,0.0939,,0.0655,,,0.0613,0.0814,0.0547,0.0682,,,,,,0.0691,,
MGESLFKGPRDYNPISSSICHLTNESDGHTTSLYGIGFGPFIITNKHLFRRNNGTLVVQSLHGVFKVKDTTTLQQHLVDGRDMIIIRMPKDFPPFPQKLKFREPQREERICLVTTNFQTKSMSSMVSDTSCTFPSGDGIFWKHWIQTKDGQCGSPLVSTRDGFIVGIHSASNCTNTNNYFTSVPKNFMELLTNQEAQQWVSGWRLNADSVLWGGHKVFMVKPEEPFQPVKEATQL [F173C],0.0828,0.0649,0.0734,,,0.0585,,0.0431,,,0.0639,,,,0.0574,,0.0513,0.0985,
MGESLFKGPRDYNPISSSICHLTNESDGHTTSLYGIGFGPFIITNKHLFRRNNGTLVVQSLHGVFKVKDTTTLQQHLVDGRDMIIIRMPKDFPPFPQKLKFREPQREERICLVTTNFQTKSMSSMVSDTSCTFPSGDGIFWKHWIQTKDGQCGSPLVSTRDGFIVGIHSASNYTNTNNYFTSVPKNFMELLTNQEAQQWVSGWRLNADSVLWGGHKVFMVKPEEPFQPVKEATQL [F173Y],0.0615,,,,,,,0.067,0.0658,0.0917,0.0539,0.0597,,,,,0.053,,0.0552
MGESLFKGPRDYNPISSSICHLTNESDGHTTSLYGIGFGPFIITNKHLFRRNNGTLVVQSLHGVFKVKDTTTLQQHLVDGRDMIIIRMPKDFPPFPQKLKFREPQREERICLVTTNFQTKSMSSMVSDTSCTFPSGDGIFWKHWIQTKDGQCGSPLVSTRDGFIVGIHSASNFNNTNNYFTSVPKNFMELLTNQEAQQWVSGWRLNADSVLWGGHKVFMVKPEEPFQPVKEATQL [T174N],0.0637,0.0748,0.0885,0.0567,0.0459,0.0823,0.0895,0.0738,,0.0771,,0.0691,,0.089,0.0072,,0.0751,,
MGESLFKGPRDYNPISSSICHLTNESDGHTTSLYGIGFGPFIITNKHLFRRNNGTLVVQSLHGVFKVKDTTTLQQHLVDGRDMIIIRMPKDFPPFPQKLKFREPQREERICLVTTNFQTKSMSSMVSDTSCTFPSGDGIFWKHWIQTKDGQCGSPLVSTRDGFIVGIHSASNFTNTDNYFTSVPKNFMELLTNQEAQQWVSGWRLNADSVLWGGHKVFMVKPEEPFQPVKEATQL [N177D],0.0686,0.0486,0.0877,,0.0826,0.0698,,0.0571,0.0853,0.0597,0.0671,,,,0.0714,0.0814,0.0548,,
MGESLFKGPRDYNPISSSICHLTNESDGHTTSLYGIGFGPFIITNKHLFRRNNGTLVVQSLHGVFKVKDTTTLQQHLVDGRDMIIIRMPKDFPPFPQKLKFREPQREERICLVTTNFQTKSMSSMVSDTSCTFPSGDGIFWKHWIQTKDGQCGSPLVSTRDGFIVGIHSASNFTNTNDYFTSVPKNFMELLTNQEAQQWVSGWRLNADSVLWGGHKVFMVKPEEPFQPVKEATQL [N178D],0.0883,0.0829,,,0.0694,,,,,,,,,0.0603,0.0268,,0.057,0.0576,
MGESLFKGPRDYNPISSSICHLTNESDGHTTSLYGIGFGPFIITNKHLFRRNNGTLVVQSLHGVFKVKDTTTLQQHLVDGRDMIIIRMPKDFPPFPQKLKFREPQREERICLVTTNFQTKSMSSMVSDTSCTFPSGDGIFWKHWIQTKDGQCGSPLVSTRDGFIVGIHSASNFTNTNEYFTSVPKNFMELLTNQEAQQWVSGWRLNADSVLWGGHKVFMVKPEEPFQPVKEATQL [N178E],0.0566,0.0599,0.0451,0.0599,0.0696,,,,0.0471,0.0666,0.0461,,0.064,,0.0539,,0.0606,,
MGESLFKGPRDYNPISSSICHLTNESDGHTTSLYGIGFGPFIITNKHLFRRNNGTLVVQSLHGVFKVKDTTTLQQHLVDGRDMIIIRMPKDFPPFPQKLKFREPQREERICLVTTNFQTKSMSSMVSDTSCTFPSGDGIFWKHWIQTKDGQCGSPLVSTRDGFIVGIHSASNFTNTNKYFTSVPKNFMELLTNQEAQQWVSGWRLNADSVLWGGHKVFMVKPEEPFQPVKEATQL [N178K],0.0519,,0.111,0.0458,0.0816,0.0817,,,0.0857,0.0677,0.0685,0.0722,,0.0605,,0.0665,,,
MGESLFKGPRDYNPISSSICHLTNESDGHTTSLYGIGFGPFIITNKHLFRRNNGTLVVQSLHGVFKVKDTTTLQQHLVDGRDMIIIRMPKDFPPFPQKLKFREPQREERICLVTTNFQTKSMSSMVSDTSCTFPSGDGIFWKHWIQTKDGQCGSPLVSTRDGFIVGIHSASNFTNTNNCFTSVPKNFMELLTNQEAQQWVSGWRLNADSVLWGGHKVFMVKPEEPFQPVKEATQL [Y179C],0.0768,0.0608,0.0578,,0.0705,0.0806,0.0562,,0.0581,,0.0873,0.0538,,0.0904,,0.0606,0.0566,,
MGESLFKGPRDYNPISSSICHLTNESDGHTTSLYGIGFGPFIITNKHLFRRNNGTLVVQSLHGVFKVKDTTTLQQHLVDGRDMIIIRMPKDFPPFPQKLKFREPQREERICLVTTNFQTKSMSSMVSDTSCTFPSGDGIFWKHWIQTKDGQCGSPLVSTRDGFIVGIHSASNFTNTNNFFTSVPKNFMELLTNQEAQQWVSGWRLNADSVLWGGHKVFMVKPEEPFQPVKEATQL [Y179F],0.0675,0.0595,0.103,,0.0717,,0.0679,0.0698,0.0715,0.0499,0.0328,,,0.0814,0.0584,,0.0725,,
MGESLFKGPRDYNPISSSICHLTNESDGHTTSLYGIGFGPFIITNKHLFRRNNGTLVVQSLHGVFKVKDTTTLQQHLVDGRDMIIIRMPKDFPPFPQKLKFREPQREERICLVTTNFQTKSMSSMVSDTSCTFPSGDGIFWKHWIQTKDGQCGSPLVSTRDGFIVGIHSASNFTNTNNYKTSVPKNFMELLTNQEAQQWVSGWRLNADSVLWGGHKVFMVKPEEPFQPVKEATQL [F180K],0.0607,0.0603,0.0526,0.086,0.0464,0.0515,0.0567,,0.0609,,0.0613,0.0444,,,,0.0569,0.0705,,0.0613
MGESLFKGPRDYNPISSSICHLTNESDGHTTSLYGIGFGPFIITNKHLFRRNNGTLVVQSLHGVFKVKDTTTLQQHLVDGRDMIIIRMPKDFPPFPQKLKFREPQREERICLVTTNFQTKSMSSMVSDTSCTFPSGDGIFWKHWIQTKDGQCGSPLVSTRDGFIVGIHSASNFTNTNNYFTIVPKNFMELLTNQEAQQWVSGWRLNADSVLWGGHKVFMVKPEEPFQPVKEATQL [S182I],0.05,0.0613,0.0651,0.0669,0.054,,,0.0522,0.0753,0.073,0.0517,0.0614,,0.0731,,0.0474,0.0469,,
